In PubChem BioAssay AID493014 (National Center for Advancing Translational Sciences (NCATS), 2011):
Out of some 340,000 compounds screened, about 170 (0.05%) were called active. Inconclusive results (about 26%) are left out. Calls follow the shape of the dose curve; as a rule, active = well fitted inhibition curve with a large enough effect in the signal ratio, with a control signal flat (not every such curve was filed as active); inconclusive = small, poorly fitted or top-dose-only effect, or effect the other way, or a change in a side signal; inactive = flat fitted curve, though single readings scatter; the % refers to the signal ratio. Only a part is listed here, and it is no random draw.

experiment: qHTS Assay to Find Inhibitors of Chronic Active B-Cell Receptor Signaling; conditions: ABC-DLBCL IkBa-CBG/CBR reporter, luminescence ratio (green luciferase fused to IkBa over red control in TMD8 lymphoma cells), 4 h; series mostly up to 46.1 µM; activity change, negative = inhibition: at the top concentration;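 as to activity change, negative = inhibition: plate controls were basal doxycycline-induced cells for no effect and cells given 10 µM MG132 for full effect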
In short: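 TMD8 ABC-DLBCL cells carrying doxycycline-inducible green luciferase fused to IkappaBalpha plus unfused red luciferase were exposed to compounds (up to 46 uM) for 4 hrs at 37C. Activity came from the overlap-corrected green/red luminescence ratio.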
Potency is read from the fitted curve at half-maximal effect.

Activity change, negative = inhibition, inactive:
COc1cccc(NC(=O)c2oc3ccc(S(=O)(=O)N4CCOCC4)cc3c2C)c1 2.23%
CCCNC(=O)CCn1nc(-c2ccc(C)cc2)c2ccccc2c1=O -3.06%
O=C1NC[C@H](Cc2ccc(O)cc2)N(CC2CCCCC2)C1=O 4.96%
CC(=O)c1cc(-c2ccccc2)n(CC(=O)Nc2ccc(C)c(C)c2)c1C -2.34%
CCOC(=O)[C@@H]1[C@H]2COc3ccc(Br)cc3[C@@H]2N2C(=O)N(c3ccc(Br)cc3)C(=O)[C@]12C -22.9%
Clc1ccc2c(c1)CCc1cccnc1C2=C1CCNCC1 2.01%
CC(C)(C)OC(=O)C[C@H]1C/C=C\C[C@H](CC(=O)N(CCO)Cc2ccccc2)C(=O)NC[C@H](c2ccccc2)OC1=O 3.77%
COC(C[C@@H]1O[C@@H]1[C@@H](O)[C@@H](C)OCc1ccccc1)OC -8.24%
CC(C)(C)OC(=O)C[C@H]1C/C=C\C[C@H](CC(=O)N[C@@H](CO)Cc2ccccc2)C(=O)N[C@H](C(C)(C)C)COC1=O 1.07%
CN(C)CCC(c1ccc(Br)cc1)c1ccccn1 (stereo not drawn) -7.28%
O=C1C2C3c4ccccc4C(c4ccccc43)[C@@H]2C(=O)N1c1cccnc1 (stereo partly drawn) -0.141%
O=C(NCc1nc2ccccc2[nH]1)C1=C[C@H](c2ccc(Br)cc2)C[C@H](OCc2ccc(CO)cc2)O1 -11.5%
O=C1N[C@@H](Cc2ccccc2)COC(=O)[C@@H](Cc2ccc(F)cc2)CC/C=C/C[C@H]1CC(=O)N(CCO)Cc1ccccc1 -1.43%
Cc1ccc(CNC(=O)CSc2nc3n[nH]c(C)c3c(=N)n2-c2cccc(C)c2)cc1 11.4%
CC(C)[C@H](NC(=O)[C@@H]1CSCN1C(=O)OC(C)(C)C)C(=O)NCC1CCC(C(=O)O)CC1 (stereo partly drawn) 3.43%
COc1ccccc1N1CCN(C(=O)C2CCCN(S(=O)(=O)c3ccc4c(c3)oc(=O)n4C)C2)CC1 (stereo not drawn) -19.9%
Cc1ccc2[nH]c3c(=O)n(CCCN4CCN(C)CC4)cnc3c2c1 -12.6%
O=C1/C(=C\c2cccnc2)SC(=S)N1c1ccc(F)cc1 1.83%
O=C(CCC1CCCCC1)NCCN1C2=NC[C@H](Cc3ccccc3)N2C[C@H]1Cc1ccc(O)cc1 2.65%
C=CCC[C@@H](Cc1ccc(F)cc1)C(=O)OC[C@@H](Cc1c[nH]c2ccccc12)NC(=O)[C@@H](CC=C)CC(=O)N(CCO)Cc1ccccc1 -2.53%
C[C@@H](NC(=O)c1[nH]cnc1C(=O)Nc1ccc(Cl)cc1)c1ccccc1 11%
COc1ccc2c(c1)OC[C@H]1[C@H]2N2C(=O)CNC(=O)[C@@]2(C)[C@H]1c1ccccc1 -3.17%
CN1CCN(C(=O)/C=C/c2ccc(Cl)cc2)CC1 -2.23%
O=C(O)COc1c(Cl)cc(/C=C2/NC(=O)NC2=O)cc1Br -3.48%
O=C(NCc1ccccc1)c1cc2ccccc2o1 -0.125%
CC(C)(C)OC(=O)C[C@H]1C/C=C\C[C@@H](CC(=O)N(CCO)Cc2ccccc2)C(=O)NC[C@H](c2ccccc2)OC1=O -2.09%
C[C@H]1COC(=O)[C@H](CC(=O)OC(C)(C)C)C/C=C\C[C@@H](CC(=O)N[C@H](CO)Cc2ccccc2)C(=O)N1 2.36%
COC(C[C@H]1O[C@@H]1[C@@H](O)COCc1ccccc1)OC 2.83%
C=CC[C@@H](CC(=O)N[C@@H](CO)Cc1ccccc1)C(=O)N[C@H](COC(=O)[C@@H](CC=C)Cc1ccc(F)cc1)Cc1c[nH]c2ccccc12 -1.85%
CC(C)Oc1ccc2c(=O)c(-c3ccccc3)coc2c1 -20.4%
C#CCNC(=O)C1=C[C@H](c2coc3ccccc3c2=O)[C@@H](CCCO)[C@H](OCC)O1 19.4%
Cc1cccc([C@H](NC(=O)OC(C)(C)C)C(=O)OC(C)(C)C)c1 -0.92%
CCN(CC)c1ccc(NC(=O)CN2CCN(S(=O)(=O)c3cc(Cl)ccc3OC)CC2)cc1 -29.5%
CCc1nn2c(N)c(/C=C3\C=Nc4ccccc43)c(=O)nc2s1 -0.478%
C[C@@H]1COC(=O)[C@@H](CC(=O)OC(C)(C)C)C/C=C\C[C@H](CC(=O)NCCO)C(=O)N1 1.14%
C[C@H](CO)N1C[C@H](C)[C@@H](CN(C)S(=O)(=O)c2ccc(F)cc2)Oc2ccc(NC(=O)Cc3cn(C)c4ccccc34)cc2C1=O -0.95%
CCN1C(=O)[C@H]2[C@@H](c3ccc(-c4ccc(OC)cc4)c(OC)c3)N3CCCC[C@@]3(C(=O)OC)[C@H]2C1=O 7.68%

Potency, active:
O=C(Oc1c(Cl)cc(Cl)c2cccnc12)c1cccs1 23.1 µM
COc1cccc(-c2sc3ccc(OC)cc3c2-c2ccc(OCCN3CCCCC3)cc2)c1 18.4 µM
COc1cccc(/C=N/NC(=O)c2[nH]nc3c2CCc2ccccc2-3)c1 17.8 µM
C/C(CC(=O)Nc1ccc(Cl)cc1C(F)(F)F)=N\NC(N)=S 11.2 µM
CC(=O)Nc1nc2ccc(-c3nc4ccccc4o3)cc2s1 14.6 µM
Cc1onc(-c2ccccc2)c1-c1nc2cc(Cl)ccc2c(=O)o1 12.6 µM
